Data: paper PMC7069986
These are yes or no findings as the source states them, for the method shown. In cells and extracts the contact can be indirect. Some binding calls cover weakened binding; strength is not graded here. For some of these results: Where a sequence is shown, tags or fusion partners need not be part of it.

Sequences of proteins named here, by UniProt entry; tags and fusion partners are left off.
UniProt Q39026: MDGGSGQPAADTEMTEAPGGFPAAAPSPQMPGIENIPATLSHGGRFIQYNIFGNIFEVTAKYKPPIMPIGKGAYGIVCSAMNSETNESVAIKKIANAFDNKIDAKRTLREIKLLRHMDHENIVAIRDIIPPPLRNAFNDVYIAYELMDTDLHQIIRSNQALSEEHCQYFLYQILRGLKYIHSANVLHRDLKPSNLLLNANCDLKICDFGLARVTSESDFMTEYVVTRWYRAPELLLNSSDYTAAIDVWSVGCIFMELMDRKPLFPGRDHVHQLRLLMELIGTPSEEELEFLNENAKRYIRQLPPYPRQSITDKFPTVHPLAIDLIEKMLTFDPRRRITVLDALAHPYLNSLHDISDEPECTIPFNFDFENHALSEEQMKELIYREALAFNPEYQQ

T1: SRK2A-cLUC (Arabidopsis thaliana) (UniProt P43291)
T1 sequence: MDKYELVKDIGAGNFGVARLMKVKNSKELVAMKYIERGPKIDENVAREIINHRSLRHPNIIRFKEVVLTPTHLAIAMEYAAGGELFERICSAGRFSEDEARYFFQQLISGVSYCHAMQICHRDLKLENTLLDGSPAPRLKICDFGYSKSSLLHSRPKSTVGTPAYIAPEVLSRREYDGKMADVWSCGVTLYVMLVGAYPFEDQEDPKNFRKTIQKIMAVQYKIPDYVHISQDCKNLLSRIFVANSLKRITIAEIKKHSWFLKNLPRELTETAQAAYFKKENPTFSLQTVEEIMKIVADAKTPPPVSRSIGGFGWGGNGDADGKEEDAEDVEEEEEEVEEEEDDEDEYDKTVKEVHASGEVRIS

T2: SRK2G-cLUC (Arabidopsis thaliana) (UniProt P43292)
T2 sequence: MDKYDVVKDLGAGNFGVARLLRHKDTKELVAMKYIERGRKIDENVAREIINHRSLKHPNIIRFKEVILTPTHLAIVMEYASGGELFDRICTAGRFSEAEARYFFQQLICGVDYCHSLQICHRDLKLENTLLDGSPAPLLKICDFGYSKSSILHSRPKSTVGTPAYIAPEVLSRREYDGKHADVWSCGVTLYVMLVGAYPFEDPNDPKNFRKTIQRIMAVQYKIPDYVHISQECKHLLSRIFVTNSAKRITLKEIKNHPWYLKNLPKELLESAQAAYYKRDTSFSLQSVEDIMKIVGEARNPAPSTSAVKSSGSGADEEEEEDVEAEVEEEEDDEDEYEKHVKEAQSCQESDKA

T3: SRK2A-VenusN (Arabidopsis thaliana) (UniProt P43291)
T3 sequence: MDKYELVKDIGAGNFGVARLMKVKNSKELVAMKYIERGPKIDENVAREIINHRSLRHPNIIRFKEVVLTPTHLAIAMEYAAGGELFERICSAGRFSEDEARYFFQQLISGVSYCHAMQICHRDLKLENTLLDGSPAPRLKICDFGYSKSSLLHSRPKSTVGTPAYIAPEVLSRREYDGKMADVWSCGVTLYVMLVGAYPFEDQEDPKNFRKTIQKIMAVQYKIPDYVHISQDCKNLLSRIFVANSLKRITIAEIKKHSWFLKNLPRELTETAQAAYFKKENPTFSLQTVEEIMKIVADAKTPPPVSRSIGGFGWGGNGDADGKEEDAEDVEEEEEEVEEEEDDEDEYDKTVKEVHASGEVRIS

T4: SRK2G-VenusN (Arabidopsis thaliana) (UniProt P43292)
T4 sequence: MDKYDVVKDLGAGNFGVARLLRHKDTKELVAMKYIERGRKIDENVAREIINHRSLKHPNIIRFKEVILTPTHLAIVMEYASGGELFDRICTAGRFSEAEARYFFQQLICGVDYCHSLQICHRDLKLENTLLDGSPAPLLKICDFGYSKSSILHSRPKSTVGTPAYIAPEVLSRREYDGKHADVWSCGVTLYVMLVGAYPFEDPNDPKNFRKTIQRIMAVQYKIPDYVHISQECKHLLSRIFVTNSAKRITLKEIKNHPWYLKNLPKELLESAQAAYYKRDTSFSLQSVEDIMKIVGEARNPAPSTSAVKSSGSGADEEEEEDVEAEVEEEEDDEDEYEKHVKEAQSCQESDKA


Columns and labels:
[1] = target: T1, SRK2A-cLUC (Arabidopsis thaliana); experiment: split reporter; split-luciferase complementation in infiltrated N. benthamiana leaves; nLUC and cLUC fusions transiently expressed; luciferin infiltrated, luminescence imaged
[2] = target: T2, SRK2G-cLUC (Arabidopsis thaliana); experiment: as above
[3] = target: MPK6 (UniProt Q39026); experiment: split reporter; BiFC in N. benthamiana leaves; VenusN and SCFP3AC fusions; leaves treated with water or 500 mM mannitol for 5 h; confocal microscopy
[4] = target: T3, SRK2A-VenusN (Arabidopsis thaliana); experiment: as above
[5] = target: T4, SRK2G-VenusN (Arabidopsis thaliana); experiment: as above

binding [1]	binding [2]	binding [3]	binding [4]	binding [5]	Binder
binds	binds	–	–	–	RAF24-nLUC (protein, UniProt O64768 1-1257) MDQAKGYEHVRYTAPDPRDEGLGSINQRFSHDSSTNVNTYVRPPDYGVSTPARPVLNYSIQTGEEFAFEFMRDRVIMKPQFIPNVYGEHSGMPVSVNLSALGMVHPMSESGPNATVLNIEEKRQSFEHERKPPSRIEDKTYHELVQSAPVISSKNDTGQRRHSLVSSRASDSSLNRAKFLCSFGGKVIPRPRDQKLRYVGGETRIIRISKTISFQELMHKMKEIFPEARTIKYQLPGEDLDALVSVSSDEDLQNMMEECIVFGNGGSEKPRMFLFSSSDIEEAQFVMEHAEGDSEVQYVVAVNGMDLSSRRSSLGLSPPGNNLDELLHGNFDRKIDRAATEPAVASLTPLAGNESLPASQTSQPVTGFSTGNEPFSQPYLGQQLQFPGLGNHQIYTSGHMASIGYIDEKRSAPLHVQPQPHYIPYSVNPETPLESLVPHYPQKPEQGFLREEQIFHVQDPETSSKEAKMRRDDSFQKVNDHPISTVESNLSAKEPKMRRESSTPRVNEYPVSSMPSDLIVPDDLPKEEAPIVTQTSSSTPDPSSSTLSEKSLRKSEDHVENNLSAKEPKMRKEHSTTRVNEYSVSSVSSDSMVPDQALKEEAPISMKISNSTPDPKSLVYPEKSLRTSQEKTGAFDTTNEGMKKNQDNQFCLLGGFSVSGHGTSNNSSSNVSNFDQPVTQQRVFHSERTVRDPTETNRLSKSDDSLASQFVMAQTTSDAFLPISESSETSHEANMESQNVHPTAPVIPAPDSIWTAEGSMSQSEKKNVETNTPEHVSQTETSAKAVPQGHNEKGDIVVDINDRFPREFLADILKTKESLNFPGLGPLHADGAGVSLNIQNNDPKTWSYFRNLAQDEFERKDLSLMDQDHPGFPTSMTNTNGVPIDYSYPPLQSEKVASSQIHPQIHFDGNIKPDVSTITIPDLNTVDTQEDYSQSQIKGAESTDATLNAGVPLIDFMAADSGMRSLQVIKNDDLEELKELGSGTFGTVYHGKWRGTDVAIKRIKRSCFIGRSSEQERLTSEFWHEAEILSKLHHPNVMAFYGVVKDGPGGTLATVTEYMVNGSLRHVLLSNRHLDRRKRLIIAMDAAFGMEYLHSKSIVHFDLKCDNLLVNLKDPARPICKVGDFGLSKIKRNTLVTGGVRGTLPWMAPELLSGSSSKVSEKVDVFSFGIVLWEILTGEEPYANMHYGAIIGGIVNNTLRPTVPNYCDPEWRMLMEQCWAPDPFVRPAFPEIARRLRTMSSSAVHTKPHAVNHQIHK
–	–	no binding	binds	binds	RAF24-SCFP3AC (protein, UniProt O64768 1-1257) MDQAKGYEHVRYTAPDPRDEGLGSINQRFSHDSSTNVNTYVRPPDYGVSTPARPVLNYSIQTGEEFAFEFMRDRVIMKPQFIPNVYGEHSGMPVSVNLSALGMVHPMSESGPNATVLNIEEKRQSFEHERKPPSRIEDKTYHELVQSAPVISSKNDTGQRRHSLVSSRASDSSLNRAKFLCSFGGKVIPRPRDQKLRYVGGETRIIRISKTISFQELMHKMKEIFPEARTIKYQLPGEDLDALVSVSSDEDLQNMMEECIVFGNGGSEKPRMFLFSSSDIEEAQFVMEHAEGDSEVQYVVAVNGMDLSSRRSSLGLSPPGNNLDELLHGNFDRKIDRAATEPAVASLTPLAGNESLPASQTSQPVTGFSTGNEPFSQPYLGQQLQFPGLGNHQIYTSGHMASIGYIDEKRSAPLHVQPQPHYIPYSVNPETPLESLVPHYPQKPEQGFLREEQIFHVQDPETSSKEAKMRRDDSFQKVNDHPISTVESNLSAKEPKMRRESSTPRVNEYPVSSMPSDLIVPDDLPKEEAPIVTQTSSSTPDPSSSTLSEKSLRKSEDHVENNLSAKEPKMRKEHSTTRVNEYSVSSVSSDSMVPDQALKEEAPISMKISNSTPDPKSLVYPEKSLRTSQEKTGAFDTTNEGMKKNQDNQFCLLGGFSVSGHGTSNNSSSNVSNFDQPVTQQRVFHSERTVRDPTETNRLSKSDDSLASQFVMAQTTSDAFLPISESSETSHEANMESQNVHPTAPVIPAPDSIWTAEGSMSQSEKKNVETNTPEHVSQTETSAKAVPQGHNEKGDIVVDINDRFPREFLADILKTKESLNFPGLGPLHADGAGVSLNIQNNDPKTWSYFRNLAQDEFERKDLSLMDQDHPGFPTSMTNTNGVPIDYSYPPLQSEKVASSQIHPQIHFDGNIKPDVSTITIPDLNTVDTQEDYSQSQIKGAESTDATLNAGVPLIDFMAADSGMRSLQVIKNDDLEELKELGSGTFGTVYHGKWRGTDVAIKRIKRSCFIGRSSEQERLTSEFWHEAEILSKLHHPNVMAFYGVVKDGPGGTLATVTEYMVNGSLRHVLLSNRHLDRRKRLIIAMDAAFGMEYLHSKSIVHFDLKCDNLLVNLKDPARPICKVGDFGLSKIKRNTLVTGGVRGTLPWMAPELLSGSSSKVSEKVDVFSFGIVLWEILTGEEPYANMHYGAIIGGIVNNTLRPTVPNYCDPEWRMLMEQCWAPDPFVRPAFPEIARRLRTMSSSAVHTKPHAVNHQIHK
binds	binds	–	–	–	RAF20-nLUC (protein, UniProt Q9SAJ2 1-1248) MDKARHQQLFQHSMEPGYRNETVPQPFMPDQTGSASANMRPPNSNGSDVKAVHNFSIQTGEEFSLEFMRDRVIPQRSSNPNGAGDMNYNTGYMELRGLIGISHTGSECASDVSRFSTVENGTSDIERTNSSLHEFGNKLNHVQSAPQALLSKDSSVGNLHGYKNTSSSASGSVTAKVKILCSFGGKILPRPGDSKLRYVGGETHIISIRKDISWQELRQKILEIYYQTRVVKYQLPGEDLDALVSVSSEEDLQNMLEEYNEMENRGGSQKLRMFLFSISDMDDALLGVNKNDGDSEFQYVVAVNGMDIGSGKNSTLLGLDSSSANNLAELDVRNTEGINTIAGDVVGVGASQLMVNGFQQTSAQQSESIPPSSSLHYSQSIPLNAAYQLQQSVPPSSALHYPQSITPGSSLQYPQSITPGSSYQYPQSIIPGSASSYGIYPQYYGHVVQHGERERFPLYPDHSSNYSAIGETTSSIPIQGHVSQQGGWAEGYPYPGSTPKSTQALAEEQKVSSDMKIREEVEPENRKTPGNDHQNPPQIDDVEVRNHNQVREMAVATTPPSQDAHLLPPSRDPRQNTTAKPATYRDAVITGQVPLSGIEDQLSTSSSTYAPVHSDSESNLIDLNYPEPEQSSQRVYCSERIPREQLELLNRLSKSDNSLSSQFVTSESPANTAQQDSGKEAVGKSHDEFKTVNDDANHHTHKDVETIFEKVGVSDETLESEPLHKIVNPDDANKNRVVNGADTEIGVSNLSHVNAAMSHVIPEEQASLQGDILIDINDRFPRDFLSEIFSQAISEDTSTVRPYPHDGAAVSMNVQNHDRKNWSYFQQLAEDQFIQRDVVLDQADSRIPSDRKDGGESSRLPYVSPLSRDGISTNLANPQLTLGQDYGGNFSEKDGGGTGSIPPALENEQMKVTESEEFGAMVENLRTPDSEPKDEKTETRHAALPPLGSEFDYSGLQIIKNEDLEELRELGSGTFGTVYHGKWRGSDVAIKRIKKSCFAGRSSEQERLTGEFWGEAEILSKLHHPNVVAFYGVVKDGPGGTLATVTEYMVDGSLRHVLVRKDRHLDRRKRLIIAMDAAFGMEYLHSKNTVHFDLKCDNLLVNLKDPSRPICKVGDFGLSKIKRNTLVSGGVRGTLPWMAPELLNGSSSKVSEKVDVFSFGIVLWEILTGEEPYANMHYGAIIGGIVNNTLRPTIPGFCDDEWRTLMEECWAPNPMARPSFTEIAGRLRVMSSAATSTQSKPSAHRASK
–	–	no binding	binds	binds	RAF20-SCFP3AC (protein, UniProt Q9SAJ2 1-1248) MDKARHQQLFQHSMEPGYRNETVPQPFMPDQTGSASANMRPPNSNGSDVKAVHNFSIQTGEEFSLEFMRDRVIPQRSSNPNGAGDMNYNTGYMELRGLIGISHTGSECASDVSRFSTVENGTSDIERTNSSLHEFGNKLNHVQSAPQALLSKDSSVGNLHGYKNTSSSASGSVTAKVKILCSFGGKILPRPGDSKLRYVGGETHIISIRKDISWQELRQKILEIYYQTRVVKYQLPGEDLDALVSVSSEEDLQNMLEEYNEMENRGGSQKLRMFLFSISDMDDALLGVNKNDGDSEFQYVVAVNGMDIGSGKNSTLLGLDSSSANNLAELDVRNTEGINTIAGDVVGVGASQLMVNGFQQTSAQQSESIPPSSSLHYSQSIPLNAAYQLQQSVPPSSALHYPQSITPGSSLQYPQSITPGSSYQYPQSIIPGSASSYGIYPQYYGHVVQHGERERFPLYPDHSSNYSAIGETTSSIPIQGHVSQQGGWAEGYPYPGSTPKSTQALAEEQKVSSDMKIREEVEPENRKTPGNDHQNPPQIDDVEVRNHNQVREMAVATTPPSQDAHLLPPSRDPRQNTTAKPATYRDAVITGQVPLSGIEDQLSTSSSTYAPVHSDSESNLIDLNYPEPEQSSQRVYCSERIPREQLELLNRLSKSDNSLSSQFVTSESPANTAQQDSGKEAVGKSHDEFKTVNDDANHHTHKDVETIFEKVGVSDETLESEPLHKIVNPDDANKNRVVNGADTEIGVSNLSHVNAAMSHVIPEEQASLQGDILIDINDRFPRDFLSEIFSQAISEDTSTVRPYPHDGAAVSMNVQNHDRKNWSYFQQLAEDQFIQRDVVLDQADSRIPSDRKDGGESSRLPYVSPLSRDGISTNLANPQLTLGQDYGGNFSEKDGGGTGSIPPALENEQMKVTESEEFGAMVENLRTPDSEPKDEKTETRHAALPPLGSEFDYSGLQIIKNEDLEELRELGSGTFGTVYHGKWRGSDVAIKRIKKSCFAGRSSEQERLTGEFWGEAEILSKLHHPNVVAFYGVVKDGPGGTLATVTEYMVDGSLRHVLVRKDRHLDRRKRLIIAMDAAFGMEYLHSKNTVHFDLKCDNLLVNLKDPSRPICKVGDFGLSKIKRNTLVSGGVRGTLPWMAPELLNGSSSKVSEKVDVFSFGIVLWEILTGEEPYANMHYGAIIGGIVNNTLRPTIPGFCDDEWRTLMEECWAPNPMARPSFTEIAGRLRVMSSAATSTQSKPSAHRASK
